# Laboratory results: the supplement of paper PMC3334620
# In all, about 33,000 sequences were measured (“E-score (-0.5 to 0.5)”: median about -0.04, highest 2% from about 0.36 on). This is one part of the list.
# Target: T1, Hmlalpha2 (UniProt P0CY09)
# T1 sequence: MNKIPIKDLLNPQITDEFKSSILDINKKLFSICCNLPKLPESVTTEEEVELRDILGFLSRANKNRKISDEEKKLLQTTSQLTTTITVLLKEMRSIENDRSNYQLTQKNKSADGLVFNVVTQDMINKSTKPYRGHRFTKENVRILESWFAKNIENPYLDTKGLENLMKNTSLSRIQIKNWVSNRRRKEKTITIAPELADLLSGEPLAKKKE
# Assay: PBM E-score (8-mer binding enrichment) (E-score (-0.5 to 0.5)); higher = stronger / more preferred TF binding; most listed sequences are background and not binding sites
# Conditions: protein concentration: 200 nM; construct: GST-full length
# Procedure, shortened: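 Detection of bound protein used fluorescent anti-GST, with scans normalised by masliner. The proteins were GST-tagged yeast transcription factors applied at about 100-200 nM to universal all-10-mer Agilent arrays made double-stranded by primer extension. Each ungapped eight-base word, pooled with its reverse complement, was scored with an E-score from the Universal PBM Analysis Suite.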
row,Sequence,PBM E-score
1,CCTTGTAA,0.454
2,AAGCCTCG,-0.0722
3,GATCAGAC,-0.139
4,ACACCATG,0.235
5,CCAAACAA,0.0549
6,ACGAATAC,0.325
7,AATACGGC,0.0587
8,AGTTGTGA,0.103
9,GGAAACAA,-0.127
10,ATTCCTTC,-0.239
11,GAGATATA,-0.0803
12,GCAGGAGC,-0.115
13,CACGTCGC,-0.0575
14,ATCCACAA,-0.0471
15,ACGGCAGT,-0.171
16,CAGCTGAC,-0.0455
17,CACACTCG,0.0994
18,CTATCGGC,-0.203
19,AAGGCGAC,-0.218
20,CGTTGTGC,0.126
21,AATGTATC,0.284
22,CGCATGAA,0.0737

row,Sequence,PBM E-score
1,AGAAGAAC,-0.0198
2,CACACACA,0.228
3,AGGCACAT,-0.0744
4,AAACATCC,0.17
5,CTACACGA,0.451
6,AACATGAG,0.379
7,ATGGCAAA,-0.00556
8,CTAACTAG,0.109
9,CCTGCGAA,-0.0687
10,GCGTCGAA,0.0568
11,CAGCAGAA,0.0468
12,CCCATCCC,-0.249
13,TCCCGTCA,0.0899
14,CTCCACAG,-0.299
15,CGCGATGA,0.073
16,AATCGAGG,-0.0941
17,AATGTCTG,0.00213
18,AAAACCGA,-0.167
19,AGCAGGGA,-0.119
20,ATTAATCA,0.127
21,GAACGACC,-0.307
22,CCTGAAGA,-0.207

row,Sequence,PBM E-score
1,TCATGACA,0.275
2,ACAACCAG,0.226
3,ATGTACCC,0.148
4,CAAGTGAG,0.00679
5,AATAGAGT,-0.124
6,CAATGTAA,0.435
7,TAAAACGA,0.136
8,ACATTCCA,0.131
9,TGCTTCAA,0.109
10,ACCTGCCA,-0.0979
11,GGCTGCAA,-0.0588
12,ATCCCAGA,-0.3
13,CCAAAACA,0.24
14,TCTATGAA,-0.025
15,CCACAGAG,-0.0375
16,ACGGAAAA,-0.197
17,CGCGAGAG,-0.135
18,AACCGGAC,-0.0767
19,ATGGTCAC,-0.0853
20,AGTCACAT,0.0821
21,TGTGGTAA,0.265
22,ATCCTCGA,0.0453

row,Sequence,PBM E-score
1,TAATCGGA,0.0897
2,CTCACAAC,0.107
3,CGTTAAGA,0.281
4,AGGCCGCC,-0.326
5,GAGATCCC,-0.128
6,ACCGGCCA,-0.247
7,AATGGATC,-0.113
8,ACCTCAGA,-0.201
9,GAGATAAA,0.0648
10,ACCTCTCG,-0.221
11,AGGCAGTG,-0.0335
12,ATGTAGCG,0.181
13,ATAGAGGA,-0.131
14,ATAGGGTG,-0.223
15,GTTGGATA,-0.0282
16,CCATCCAC,-0.24
17,TCATATCA,0.117
18,AACTGATC,0.0828
19,ATTATCAA,0.24
20,CCGCAACG,0.0871
21,AGGCTCTA,-0.3
22,CCCATCGG,-0.119

row,Sequence,PBM E-score
1,ACTCTTGG,-0.117
2,CTCCGACA,0.00915
3,TCAAGAGA,-0.0868
4,ATCGCTCC,-0.233
5,AGTCATCC,-0.134
6,CATAAGGA,0.00441
7,CAGCCCGG,-0.22
8,GCGCGTAC,0.225
9,CAGGATCG,-0.0832
10,AAAGAGAG,-0.121
11,ACTAGCGC,-0.144
12,CCCGGAAA,-0.154
13,CACTACCC,-0.18
14,ACGACATC,0.0415
15,ACTGGCGA,-0.0596
16,CTGCCGAA,-0.0785
17,AATGGAAG,-0.112
18,CCTGGAAG,-0.387
19,ACACCGAG,0.128
20,ACTAATCA,0.0473
21,CAATTTCG,-0.0858
22,ACCACCCG,-0.232
